Results as given in PubChem BioAssay (NCI).
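Grown in 96-well plates, cells were treated for 48 hours with each compound at five concentrations. Insufficient inhibition: endpoint recorded as highest concentration tested. Here, GI50 denotes the concentration required for 50% inhibition of growth. At the TGI there is no net growth.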

Test system: NCI-H322M lung
Assay: inhibition of tumour cell growth, NCI panel, 48 h

| SMILES | TGI | GI50 |
| --- | --- | --- |
| O=C1OC2C=CC1C1(CCOC1=O)C2 (stereo not drawn) | > 100 µM | – |
| O=C(NC/C=C/Br)NC1CCNc2ccccc21 (stereo not drawn) | > 100 µM | – |
| S=C(Nc1ccc2c(c1)Cc1ccccc1-2)Nc1ccc2c(c1)Cc1ccccc1-2 | > 100 µM | – |
| COc1cccc2c1[C@]1(O)C(O)CCCC21 (stereo partly drawn) | > 100 µM | – |
| Cc1cc(Cl)ccc1NC(=O)CCCC(=O)C(C(=O)c1ccccc1)c1ccccc1 (stereo not drawn) | > 100 µM | – |
| CC(C)CC(NC(=O)C(COc1ccc([N+](=O)[O-])cc1)Cc1ccccc1)C(=O)Nc1ccccc1 (stereo not drawn) | > 100 µM | – |
| COC1=CC(=O)c2c(cc(COP(=O)(N(C)CCBr)N(C)CCBr)n2C)C1=O | 6.61 µM | – |
| CC1(C)N=C(N)N=C(N)N1c1ccc(OCCCOc2ccccc2)c(Cl)c1 | 16 µM | – |
| CSC1NNC2(C(=O)N1)c1ccccc1-c1ccccc12 (stereo not drawn) | > 10 µM | – |
| CSc1ccccc1P(CCP(c1ccccc1SC)c1ccccc1SC)c1ccccc1SC | > 100 µM | – |
| Cc1cc(C)c2c(c1)CC1(Cc3c(C)cc(C)cc3C1=O)C2=O (stereo not drawn) | > 100 µM | – |
| CCC1(CC)C(=O)[N-]C(=O)[N-]C1=O.[Au+].[Au+].c1ccc([PH+](c2ccccc2)c2ccccc2)cc1.c1ccc([PH+](c2ccccc2)c2ccccc2)cc1 | 3.06 µM | 1.69 µM |
| O=S(=O)(O)c1ccc(Nc2ccnc3cc(Cl)ccc23)cc1 | > 100 µM | – |
| COC(=O)c1c(C#C[Si](C)(C)C)c(C#C[Si](C)(C)C)c(C#C[Si](C)(C)C)c(C#C[Si](C)(C)C)c1C(=O)OC | > 100 µM | – |
| CC(=O)NS(=O)(=O)c1ccc(-n2nc(-c3ccccc3)cc2C2=CC(=O)C=CC2=O)cc1 | > 100 µM | > 100 µM |
| CC(=O)O[C@H](C[C@H](C(C)C)N(C)C(=O)[C@@H](NC(=O)[C@H]1CCCCN1C)C(C)(C)C)c1nc(C(=O)N[C@@H](Cc2ccccc2)C[C@H](C)C(=O)O)cs1 | > 25 µM | < 0.0025 µM |
| C[C@@H](c1ccccc1)N(CC#N)C1CCC[C@H]1O (stereo partly drawn) | > 100 µM | – |
| N#Cc1c(C#N)c(-c2ccccc2)n(/N=C\c2ccccc2)c1N | > 100 µM | – |
| CC(C)N(Cc1ccccc1)S(=O)(=O)c1n[nH]c(C(C)(C)C)n1 | > 100 µM | – |
| C=C1C(=O)O[C@H]2[C@H]([C@H](C)CCCC(C)=O)O[C@H]([C@@]3(C)CCC(=O)O3)C[C@@H]12 | > 100 µM | – |
| CC1(C)CC2(C)OC(=N)C1(C#N)C2(C#N)C#N (stereo not drawn) | 27.3 µM | – |
| CCOC(=O)c1c(-c2ccc(OC)c(O)c2)c(C#N)c(=S)n(C2OC(CO)C(O)C(O)C2O)c1-c1ccccc1 (stereo not drawn) | > 100 µM | – |
| CCOC(=O)c1cn(C)nc1N/C(C)=C\C(=O)c1ccccc1 | > 100 µM | – |
| COC(=O)C1[C@H](C(=O)OC)C1(Br)CBr (stereo partly drawn) | > 100 µM | – |

| SMILES | TGI | GI50 |
| --- | --- | --- |
| COc1ccc(NS(=O)c2cccc(C)c2)cc1 (stereo not drawn) | > 100 µM | – |
| C[C@H]1CC2=CC(=O)CC[C@]2(C)[C@H]2CC[C@@]3(C)[C@@H](CC[C@]3(C)O)[C@H]12 | > 100 µM | 72.3 µM |
| c1ccc2c(c1)c1c3n2-c2cc(on2)C3CCC1 (stereo not drawn) | > 100 µM | – |
| C[C@@H]1OCC(O)C([C@H]2OC(c3ccccc3)=N[C@H]2CO)O1 (stereo partly drawn) | > 100 µM | – |
| Nc1ccc(-c2nc3ccccc3s2)cc1 | > 80.9 µM | – |
| Cn1c(=O)c2sc3cc4c(cc3c2c2ccccc21)sc1c(=O)n(C)c2ccccc2c14 | > 100 µM | – |
| CN(C)c1ccc(/C=C2\C[C@H]3[C@@H]4CCc5cc(O)ccc5[C@H]4CC[C@]3(C)C2=O)cc1 | > 100 µM | – |
| C=C1C[C@@H]2[C@H](CC[C@]3(C)C(=O)CC[C@@H]23)[C@@]2(C)C=CC(=O)C=C12 | > 100 µM | 64 µM |
| C[C@]12CC[C@H]3[C@@H](CCC4=C[C@@H](OC5OCC(OC6OC(CO)C(O)C(O)C6O)C(O)C5O)CC[C@@]43C=O)[C@@]1(O)CCC2C1=CC(=O)OC1 (stereo partly drawn) | 5.46 µM | – |
| CCOC(=O)c1cc(-c2ccn(C(C)=O)c2)c(-c2cc(C)co2)[nH]1 | > 100 µM | – |
| C=CCn1c(=O)c2ccccc2[n+]2c(-c3cccc([N+](=O)[O-])c3)csc12 | > 100 µM | – |
| Cc1cccc(O)c(=O)c1 | > 100 µM | – |
| O=c1[nH]cnc2nc(-c3ccc(N(CCCl)CCCl)cc3)[nH]c12 | > 100 µM | 97.4 µM |
| O=C(Nc1ccc(-c2ccnc(Nc3ccc(N4CCOCC4)cc3)n2)cc1)C1CCCN1 (stereo not drawn) | 36.3 µM | 10.6 µM |
| COc1cc2c3c(c1OC)Oc1ccc(cc1)CC1c4c(cc(OC)c(OC)c4Oc4ccc(cc4)CC3N(C)CC2)CCN1C (stereo not drawn) | 50 µM | – |
| CS(=O)(=O)Nc1cc(-c2ccc3ncnc(Nc4cccc(Cl)c4F)c3c2)cnc1Cl | 11.2 µM | 2.41 µM |
| O=C(NCc1ccccc1)c1c(O)c2ccccc2[nH]c1=O | > 100 µM | – |
| O=C(NCc1cccnc1)C(=O)NCc1cccnc1 | > 100 µM | – |
| O=C1NC(O)CCN1C1CC(O)C(CO)O1 (stereo not drawn) | > 100 µM | – |
| CC1(C)CC(=O)C(=CN2C(=O)CNC2=S)C(=O)C1 | > 100 µM | – |
| CN(C)CCNc1c2c(c(NCCN(C)C)c3c(CO)c[nH]c13)C(=O)c1ccccc1C2=O | 5.26 µM | 1.04 µM |
| Cc1ccc(S(=O)(=O)c2ccsc2N)cc1 | > 100 µM | > 100 µM |
| C#CCOc1cccc(Nc2ncc3ncn(C4CCN(C(=O)CCl)C4)c3n2)c1 (stereo not drawn) | > 62.5 µM | > 62.5 µM |
| COc1cc(S(=O)(=O)N/N=C/c2cc(Br)c(O)c(OC)c2)c(OC)cc1NC(C)=O | > 100 µM | – |

| SMILES | TGI | GI50 |
| --- | --- | --- |
| CC1OC=CC(=O)C1O (stereo not drawn) | > 100 µM | – |
| NC1CCCCC1N.O=S(=O)([O-])CCCN1CCN(CCO)CC1.O=S(=O)([O-])CCCN1CCN(CCO)CC1.[Pt+4] | > 100 µM | 12 µM |
| S=C(Nc1ccccc1)N1CCn2c1nsc2=Nc1ccccc1 | > 100 µM | > 100 µM |
| O=C(O)c1oc2cccc3c2c1CCC3 | > 100 µM | – |
| CC(C)(O)CCC(O)C(C)(O)C1CCC2(O)C3=CC(=O)C4(O)CC(O)C(O)CC4(C)C3CCC12C (stereo not drawn) (tested in a mixture with another compound) | > 100 µM | – |
| CN(CCN(C)C(=O)CCn1ccc(=O)[nH]c1=O)C(=O)CCn1ccc(=O)[nH]c1=O | > 100 µM | – |
| CC1(C)N=C(N)N=C(N)N1c1ccc(OCCCCNC(=O)c2ccc(S(=O)(=O)F)cc2)c(Cl)c1 | > 100 µM | 8.14 µM |
| [N-]=[N+]=Nc1c(Br)c(=O)[nH]c(=O)n1COCCO | > 100 µM | – |
| Cc1ccc2cnc(N)c(C#Cc3cncc(C(=O)Nc4ccc(CN5CCN(C)CC5)c(C(F)(F)F)c4)c3)c2c1 | 0.959 µM | 0.34 µM |
| COC(=O)C(C(=O)OC)C1CC(=O)c2c(Br)sc(Br)c21 (stereo not drawn) | 41.3 µM | – |
| Cc1ccc2c(=O)c(C(=O)N(CCO)CCO)c[nH]c2n1 | > 100 µM | – |
| CN(C)C=Nc1nncc2n[nH]nc12 | > 100 µM | – |
| CN/N=C(\C(=O)Nc1ccc([N+](=O)[O-])cc1[N+](=O)[O-])C1NC(=O)NC1=O (stereo not drawn) | > 100 µM | – |
| COc1ccc(NC(=S)NNC(=O)c2cc(-c3ccccc3)nc3ccccc23)cc1 | 62.1 µM | – |
| Cc1nnc(CC#N)n1NC(=O)CC#N | > 100 µM | – |
| C=C1C(=O)O[C@H]2[C@H]1CC/C(COC(=O)/C=C/c1c[nH]c3ccccc13)=C\CC[C@@]1(C)O[C@@H]21 | 3.61 µM | 1.73 µM |
| O=c1oc2ccccc2c(O)c1Cc1cccc(Cc2c(O)c3ccccc3oc2=O)c1 | > 100 µM | – |
| CC(=O)Nc1ccc(/C=C(\NC(=O)c2ccccc2)C(=O)NNS(=O)(=O)c2ccc(C)cc2)cc1 | > 100 µM | – |
| CC(=O)Nc1cc2cc(NS(=O)(=O)c3cc(C(F)(F)F)cc(C(F)(F)F)c3)ccc2oc1=O | > 100 µM | – |
| O=c1oc2cc(OS(=O)(=O)c3ccccc3)ccc2c2c1CCCCC2 | > 100 µM | > 100 µM |
| FC(F)(F)c1cc(NC2=NCCN=C(Nc3cc(C(F)(F)F)cc(C(F)(F)F)c3)SS2)cc(C(F)(F)F)c1 | 32.3 µM | 8.82 µM |
| N#C/C(=C\c1cccnc1)c1nc2ccccc2o1 | > 100 µM | > 100 µM |
| CC[C@H](C)[C@H](NC(=O)c1nccn1C)C(=O)N(C)[C@H](C[C@@H](OC(C)=O)c1nc(C(=O)N[C@@H](Cc2ccccc2)C[C@H](C)C(=O)OC)cs1)C(C)C | > 33.3 µM | 2.35 µM |
| Brc1ccc2c(c1)c(-c1nc(-c3c[nH]c4ncccc34)cs1)cn2CCCN1CCCCC1 | 3.15 µM | 1.7 µM |

| SMILES | TGI | GI50 |
| --- | --- | --- |
| CCN(CC)CCOc1nc2cc(OC)c(OC)cc2c2c1-c1ccc(OC)cc1C2=O | 31.4 µM | 17.6 µM |
| CC1(C)Oc2ccc3c(=O)c4ccccc4oc3c2C1C(=O)O (stereo not drawn) | > 100 µM | – |
| COc1ccc(N2C(=O)C(N3C(=O)C=CC3=O)C2C=O)cc1 (stereo not drawn) | > 100 µM | – |
| N#CC1CCc2c(c(-c3cn[nH]c3C(F)(F)F)nc3c(F)cc4[nH]ncc4c23)C1 (stereo not drawn) | 64.2 µM | 10.1 µM |
| CC(C)c1nccn1Cc1ccc(Cl)cc1Cl | > 100 µM | – |
| c1ccc(-c2[nH]c(-c3ccccc3)c(-c3cnccn3)c2-c2cnccn2)cc1 | > 100 µM | – |
| C/C=C/C(=O)[O-].N.N.N.N.N.[Co+3].[O-][Cl+3]([O-])([O-])[O-] | > 100 µM | > 100 µM |
| O=C1C(=Cc2ccccc2[N+](=O)[O-])N=C(c2ccccc2)N1n1c(-c2ccccc2)nc2ccccc2c1=O | > 100 µM | – |
| COc1cc(/C=C\c2cc(OC)c(OC)c(OC)c2)cc(NS(=O)(=O)c2cccc(Cl)c2)c1OC | > 100 µM | 0.373 µM |
| COc1cccc(C2CC(=O)c3cccn32)c1 (stereo not drawn) | > 100 µM | – |
| COC(=O)C12C3C4C1C1C2C3C41C(=O)N(C(C)C)C(C)C (stereo not drawn) | > 100 µM | – |
| COc1cc(C(=O)C/C(CCC(=O)Nc2ccc(Cl)cc2Cl)=N/Nc2nnc(C)n2N)ccc1O | > 100 µM | – |
| O=C(C=P(c1ccccc1)(c1ccccc1)c1ccccc1)c1ccc(-c2ccc(F)cc2F)cc1 | 9.32 µM | – |
| Cc1nn(-c2ccccn2)c2c1C(SC#N)=C(C=O)CC2 | 28.2 µM | – |
| N#Cc1ncc(N2C(=O)C3(CCC3)N(c3ccc(OC4CCNCC4)nc3)C2=S)cc1C(F)(F)F | > 100 µM | 88.7 µM |
| NC(=S)N/N=C\c1nccc2c(C(F)(F)C(F)(F)C(F)(F)F)cccc12 | 2.08 µM | 0.0405 µM |
| c1ccc(-c2cnc3nc4ccccc4nc3n2)cc1 | 20.4 µM | – |
| Cc1ccc(SCC(O)=C2C(=O)CCCC2=O)cc1 | > 100 µM | – |
| C/C(=C\CNc1nc(Cl)nc2nc[nH]c12)CO | > 100 µM | – |
| COC(=O)/C=C\C(C#N)(C#N)N=Cc1ccsc1 | 31.1 µM | – |
| CCC1OC(/C(C)=C/C(C)/C=C/C2C(C)C2/C=C/C2OC(CC(=O)O)CC(O)C2O)CC=C1C (stereo not drawn) | > 50 µM | 40 µM |
| O=C(O)Cc1cc(=O)[nH]c2c1C(=O)CCC2 | > 100 µM | – |
| C=C(C(=O)OC)[C@H]1CC/C(C)=C/CC/C(C)=C/CC[C@@]2(C)O[C@@H]2C1 | > 100 µM | – |
